Over roughly 33,000 sequences, “E-score (-0.5 to 0.5)” has its median near -0.054; the highest 2% begin near 0.35. This is one part of the list.

The results in this text go back to the supplement of paper PMC3334620.

The target in this experiment is T1, Stb5 (UniProt P38699).
T1 sequence: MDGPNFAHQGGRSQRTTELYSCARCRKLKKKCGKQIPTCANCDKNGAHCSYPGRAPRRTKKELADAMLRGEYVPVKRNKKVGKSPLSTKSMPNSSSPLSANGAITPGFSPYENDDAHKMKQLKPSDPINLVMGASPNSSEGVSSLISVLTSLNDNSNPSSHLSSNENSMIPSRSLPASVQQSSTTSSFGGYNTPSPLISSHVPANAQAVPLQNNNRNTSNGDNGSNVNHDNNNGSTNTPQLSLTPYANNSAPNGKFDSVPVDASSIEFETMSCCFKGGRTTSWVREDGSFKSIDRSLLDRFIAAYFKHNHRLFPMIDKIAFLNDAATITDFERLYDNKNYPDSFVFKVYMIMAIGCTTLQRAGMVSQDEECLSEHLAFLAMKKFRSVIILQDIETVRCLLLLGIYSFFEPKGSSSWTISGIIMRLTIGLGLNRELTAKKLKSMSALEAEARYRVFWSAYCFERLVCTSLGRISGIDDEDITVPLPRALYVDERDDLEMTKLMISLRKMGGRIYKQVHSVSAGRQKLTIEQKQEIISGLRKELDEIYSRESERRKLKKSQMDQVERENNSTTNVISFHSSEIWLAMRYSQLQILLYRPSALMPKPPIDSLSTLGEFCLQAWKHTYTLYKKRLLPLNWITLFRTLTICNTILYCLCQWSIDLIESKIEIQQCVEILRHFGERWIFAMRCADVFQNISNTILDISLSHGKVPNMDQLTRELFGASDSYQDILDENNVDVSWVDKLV
Nature of the experiment: PBM E-score (8-mer binding enrichment) (E-score (-0.5 to 0.5)); higher = stronger / more preferred TF binding; most listed sequences are background and not binding sites. The note with it: protein concentration: 200 nM; construct: GST-full length. In outline:
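Each ungapped eight-base word and its reverse complement, pooled, received an E-score from the Universal PBM Analysis Suite. Underlying scans, normalised with masliner, recorded fluorescent anti-GST bound to GST-tagged yeast transcription factors. These were applied at about 100-200 nM to universal all-10-mer Agilent arrays double-stranded by primer extension.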
For the sequence GGGATCAC, the “PBM E-score” value stood at 0.0287.
AGTAACGG: the “PBM E-score” value amounted to 0.215.
Then CCGATAGC, with 0.24; and AGGAGTAT, with -0.261; and AACATGGA, with -0.102.
The value for GACCTGGC was -0.162; that for GATGTGCC was 0.0775.
With GGGATAGA, the “PBM E-score” value came out at 0.128.
The value for AAGAAGAC was -0.0592; that for GGACCGAC was 0.318.
The value for CACAGTGG was -0.0596.
As for CAGAATTC, the “PBM E-score” value was -0.0843.
The value for CCCGATCA was 0.323; that for AACCCACA was -0.21.
Then ATGCTGGA, with -0.171; and AGACAAAA, with -0.134.
For CACCGCAA, the “PBM E-score” value came to 0.368.
In the case of GCTCCTCC, the “PBM E-score” value is -0.242.
Then GCACTCGC, with -0.101.
The value for AAGTGACA was 0.0166; that for GCAGCGGA was 0.197; that for AATCTCAA was -0.0716.
With ACTTAGCA, the “PBM E-score” value was -0.0867.
Then CCACCTCA, with -0.116.
Turning to GGTGTTAC, the “PBM E-score” value was 0.4.
As for AACACGAC, the “PBM E-score” value is -0.168.
Take GAGCTTCC: the “PBM E-score” value worked out at 0.0768.
Turning to CATCCATA, the “PBM E-score” value was -0.0155.
On to CCTCCGCA, for which the “PBM E-score” value was 0.15.
For the sequence GGGTGTGA, the “PBM E-score” value was -0.0466.
As for ACAATCGG, the “PBM E-score” value stood at 0.323.
The value for GCATTGAC was -0.0989; that for CACAGGAA was -0.257; that for GCTAGCAC was 0.0767.
The value for TACCCATA was -0.208; that for CGATAGGC was 0.0483; that for CTTCATCA was -0.214.
The value for CGTGAAAA was -0.137; that for CCCGGAGA was 0.27; that for GCTGACGA was -0.341.
On to GCGTGCGA, for which the “PBM E-score” value is -0.165.
On to GTGCTGCA, for which the “PBM E-score” value is 0.0941.
The value for GGAGGAAA was 0.216.
Then ATCAGGGC, with -0.218; and GATAACAC, with 0.139.
Then CAAGAATG, with -0.139.
In the case of ACATACAC, the “PBM E-score” value is -0.0653.
Regarding AGGTATCC, the “PBM E-score” value was -0.211.
The value for AGGGACTA was -0.0339; that for ATGGTGAC was -0.192.
The value for AATTCCCG was 0.363.
Regarding AATGATGG, the “PBM E-score” value is -0.169.
The value for CAGAACTC was -0.175.
As for AACGCCGC, the “PBM E-score” value worked out at 0.448.
GTAGTAAC: the “PBM E-score” value stood at 0.12.
The value for CCCTATAG was -0.104; that for GATCCAAC was 0.102; that for CGTTTACC was 0.0535.
Regarding CTTACAAC, the “PBM E-score” value is -0.117.
Then CTGAGCAG, with -0.209.
Then GCGACGCC, with 0.0434; and CGGGTGAC, with 0.142; and CAGTAGAA, with -0.325.
The value for AACTTCCT was -0.172.
CTATTCTA: the “PBM E-score” value was 1e-05.
The value for GCCGTCAC was 0.224.
On to AGAATATG, for which the “PBM E-score” value is -0.153.
The value for CACAAGGA was -0.31.
Then ACTGGGGG, with -0.28.
Then ATAAAGCC, with 0.359; and GTTCGAGA, with -0.072; and AATTGCGG, with 0.139.
For the sequence AATAGCCT, the “PBM E-score” value was -0.182.
The value for ACAGCATG was 0.0379; that for GCTTTAGA was -0.0225.
In the case of AGGATATA, the “PBM E-score” value is -0.0284.
The value for CCAGTGTA was -0.188; that for CACACATC was -0.15; that for CCATCTGA was -0.198.
The value for CAAGCAAA was -0.17.
The value for TAAGCTTA was -0.105.
With TTCAAAAA, the “PBM E-score” value is -0.155.
Regarding TGGAGACA, the “PBM E-score” value was -0.254.
The value for GTCGGACA was 0.385.
The value for TCAGTTAA was -0.0196.
For ACTGCATG, the “PBM E-score” value was -0.302.
